Results published in patent publication US20230250147A1 (Sanofi, published 2023).

T1: Mouse GLP-1R (mouse, UniProt O35659 22-463)
T1 sequence (looked up): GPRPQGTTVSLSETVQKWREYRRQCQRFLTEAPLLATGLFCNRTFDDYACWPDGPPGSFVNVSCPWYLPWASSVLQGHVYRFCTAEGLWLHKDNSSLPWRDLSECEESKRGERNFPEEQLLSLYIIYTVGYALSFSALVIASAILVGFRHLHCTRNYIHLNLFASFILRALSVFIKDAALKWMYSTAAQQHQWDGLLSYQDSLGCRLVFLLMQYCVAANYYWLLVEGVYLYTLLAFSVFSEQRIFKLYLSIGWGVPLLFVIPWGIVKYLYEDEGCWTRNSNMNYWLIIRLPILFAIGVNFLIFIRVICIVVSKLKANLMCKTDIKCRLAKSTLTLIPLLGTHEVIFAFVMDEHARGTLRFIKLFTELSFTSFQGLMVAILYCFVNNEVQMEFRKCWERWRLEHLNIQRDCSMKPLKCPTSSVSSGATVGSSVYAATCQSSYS

B1: GLP-1RA/FGF21 Fc fusion protein SEQ ID NO: 47 (Fc fusion)
chain: HGEGTFTSDLSKQLEEEAVQLFIEWLLATGPSSGKPPPKSGGGGGGGSGGGGSGGGGSA[… human IgG4 Fc with changes …]GGGSGSAHPIPDSSPLLQFGGQVRQRYLYTDDACQTEAHLEIREDGTVGGAADQSPESLLQLKALKPGVIQILGVKTSRFLCQRPDGALYGSLHFDPEACSFRELLLEDGYNVYQSEAHGLPLHLPGCKSPHRDPAPRGPARFLPLPGLPPAPPEPPGILAPQPPDVGSSDPLSMVYPSQGRSPSYAS
B2: GLP-1RA/FGF21 Fc fusion protein SEQ ID NO: 49 (Fc fusion)
chain: HGEGTFTSDLSKQLEEEAVQLFIEWLLATGPSSGEPPPKSGGGGGGGSGGGGSGGGGSA[… human IgG4 Fc with changes …]GGGSGSAHPIPDSSPLLQFGGQVRQRYLYTDDACQTEAHLEIREDGTVGGAADQSPESLLQLKALKPGVIQILGVKTSRFLCQRPDGALYGSLHFDPEACSFRELLLEDGYNVYQSEAHGLPLHLPGCKSPHRDPAPRGPARFLPLPGLPPAPPEPPGILAPQPPDVGSSDPLSMVYPSQGRSPSYAS
B3: GLP-1RA/FGF21 Fc fusion protein SEQ ID NO: 48 (Fc fusion)
chain: HGEGTFTSDLSKQLEEEAVQLFIEWLLATGPSSGKPPPESGGGGGGGSGGGGSGGGGSA[… human IgG4 Fc with changes …]GGGSGSAHPIPDSSPLLQFGGQVRQRYLYTDDACQTEAHLEIREDGTVGGAADQSPESLLQLKALKPGVIQILGVKTSRFLCQRPDGALYGSLHFDPEACSFRELLLEDGYNVYQSEAHGLPLHLPGCKSPHRDPAPRGPARFLPLPGLPPAPPEPPGILAPQPPDVGSSDPLSMVYPSQGRSPSYAS
B4: GLP-1RA/FGF21 Fc fusion protein SEQ ID NO: 53 (Fc fusion)
chain: HGEGTFTSDKSKQLDEQRAKEFIEWLKAGGHPSGKPPPKGGGGGGGSGGGGSGGGGSA[… human IgG4 Fc with changes …]GGGSGSAHPIPDSSPLLQFGGQVRQRYLYTDDACQTEAHLEIREDGTVGGAADQSPESLLQLKALKPGVIQILGVKTSRFLCQRPDGALYGSLHFDPEACSFRELLLEDGYNVYQSEAHGLPLHLPGCKSPHRDPAPRGPARFLPLPGLPPAPPEPPGILAPQPPDVGSSDPLSMVGSQGRSPSYAS
B5: GLP-1RA/FGF21 Fc fusion protein SEQ ID NO: 46 (Fc fusion)
chain: HGEGTFTSDLSILLDEEAVREFIEWLLATGPVSGAPPPSGGGGGGGSGGGGSGGGGSA[… human IgG1 Fc with changes …]GGGSGSAHPIPDSSPLLQFGGQVRQRYLYTDDACQTEAHLEIREDGTVGGAADQSPESLLQLKALKPGVIQILGVKTSRFLCQRPDGALYGSLHFDPEACSFRELLLEDGYNVYQSEAHGLPLHLPGCKSPHRDPAPRGPARFLPLPGLPPAPPEPPGILAPQPPDVGSSDPLSMVGSQGRSPSYAS
B6: GLP-1RA/FGF21 Fc fusion protein SEQ ID NO: 50 (Fc fusion)
chain: HGEGTFTSDLSKQLEEEAVQLFIEWLLATGPSSGKPPPKGGGGGGGSGGGGSGGGGSA[… human IgG4 Fc with changes …]GGGSGSAHPIPDSSPLLQFGGQVRQRYLYTDDACQTEAHLEIREDGTVGGAADQSPESLLQLKALKPGVIQILGVKTSRFLCQRPDGALYGSLHFDPEACSFRELLLEDGYNVYQSEAHGLPLHLPGCKSPHRDPAPRGPARFLPLPGLPPAPPEPPGILAPQPPDVGSSDPLSMVYPSQGRSPSYAS
B7: GLP-1RA/FGF21 Fc fusion protein SEQ ID NO: 52 (Fc fusion)
chain: HGEGTFTSDLSKQLEEEAVQLFIEWLLATGPSSGEPPPKGGGGGGGSGGGGSGGGGSA[… human IgG4 Fc with changes …]GGGSGSAHPIPDSSPLLQFGGQVRQRYLYTDDACQTEAHLEIREDGTVGGAADQSPESLLQLKALKPGVIQILGVKTSRFLCQRPDGALYGSLHFDPEACSFRELLLEDGYNVYQSEAHGLPLHLPGCKSPHRDPAPRGPARFLPLPGLPPAPPEPPGILAPQPPDVGSSDPLSMVYPSQGRSPSYAS
B8: GLP-1RA/FGF21 Fc fusion protein SEQ ID NO: 51 (Fc fusion)
chain: HGEGTFTSDLSKQLEEEAVQLFIEWLLATGPSSGKPPPEGGGGGGGSGGGGSGGGGSA[… human IgG4 Fc with changes …]GGGSGSAHPIPDSSPLLQFGGQVRQRYLYTDDACQTEAHLEIREDGTVGGAADQSPESLLQLKALKPGVIQILGVKTSRFLCQRPDGALYGSLHFDPEACSFRELLLEDGYNVYQSEAHGLPLHLPGCKSPHRDPAPRGPARFLPLPGLPPAPPEPPGILAPQPPDVGSSDPLSMVYPSQGRSPSYAS
B9: GLP-1RA/FGF21 Fc fusion protein SEQ ID NO: 54 (Fc fusion)
chain: GHGEGTFTSDKSKQLEEEAVRLFIEWLKAGGHPSGKPPPKGGGGGGGSGGGGSGGGGSA[… human IgG4 Fc with changes …]GGGSGSAHPIPDSSPLLQFGGQVRQRYLYTDDACQTEAHLEIREDGTVGGAADQSPESLLQLKALKPGVIQILGVKTSRFLCQRPDGALYGSLHFDPEACSFRELLLEDGYNVYQSEAHGLPLHLPGCKSPHRDPAPRGPARFLPLPGLPPAPPEPPGILAPQPPDVGSSDPLSMVGSQGRSPSYAS
B10: GLP-1RA/FGF21 Fc fusion protein SEQ ID NO: 55 (Fc fusion)
chain: GHGEGTFTSDKSIQLEEEAVRLFIEWLLAGGHPSGKPPPKGGGGGGGSGGGGSGGGGSA[… human IgG4 Fc with changes …]GGGSGSAHPIPDSSPLLQFGGQVRQRYLYTDDACQTEAHLEIREDGTVGGAADQSPESLLQLKALKPGVIQILGVKTSRFLCQRPDGALYGSLHFDPEACSFRELLLEDGYNVYQSEAHGLPLHLPGCKSPHRDPAPRGPARFLPLPGLPPAPPEPPGILAPQPPDVGSSDPLSMVGSQGRSPSYAS

Assays:
Assay in all cases: cell-based or functional assay
[1] = target: human glucagon-like peptide-1 (GLP-1) receptor (human, UniProt P43220 24-463)
Mouse GLP-1R = target: T1, Mouse GLP-1R
Monkey GLP-1R = Monkey GLP-1R (monkey)

| Binder | HTRF cAMP EC50 [1] [pM] | HTRF cAMP EC50 (Mouse GLP-1R) [pM] | HTRF cAMP EC50 (Monkey GLP-1R) [pM] |
| --- | --- | --- | --- |
| B1 | 17 | 6.64 | 35.6 |
| B2 | 23.4 | 6.65 | 42.2 |
| B3 | 35.7 | 10.1 | 60.6 |
| B4 | 28.4 | 128 | 25 |
| B5 | 8.47 | 17.9 | 11.4 |
| B6 | 20.5 | 7.87 | 38.2 |
| B7 | 25.6 | 7.04 | 46 |
| B8 | 26.8 | 7.58 | 51.1 |
| B9 | 107 | 119 | 97.4 |
| B10 | 261 | 596 | 157 |
